The campaign covered roughly 420,000 compounds. About 50,000 (12%) were called active. Inconclusive results, whose numbers are uncertain, are shown with a selection of clear calls. Calls come from the whole dose curve; as a rule, active = well fitted inhibition curve with a large enough effect; inconclusive = small, poorly fitted or top-dose-only effect; inactive = flat fitted curve, though single readings scatter. Potencies of inconclusive entries are left out as doubtful fits.
experiment: qHTS for Inhibitors of human tyrosyl-DNA phosphodiesterase 1 (TDP1): qHTS in cells in presence of CPT; details: chicken DT40 Tdp1-/-;hTDP1 cells + 20 nM CPT, ATP luminescence, 48 h; activity change, negative = growth inhibition: at 46.2 µM (top of the series); note: nearly all actives have a fitted effect of over 55% in size
Procedure, shortened: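 Chicken DT40 Tdp1-/- cells stably complemented with human TDP1 were seeded at 400 cells/well in medium containing 20 nM camptothecin, exposed to pin-transferred compounds, and grown at 37 °C for at least 48 hr. Viability was read as ATP luminescence.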
% is set by controls: 0 for no effect and ±100 for the full control effect; potency is the fitted concentration of half-maximal effect; tags give direction and shape of the fitted curve.

Structure (SMILES)	Potency	activity change, negative = growth inhibition
Cc1ccc(N/C(N)=N/c2nc(CSc3nnc(C)s3)cc(=O)[nH]2)c(C)c1	active: 0.651 µM	–
CC1(C)CC(=O)C([N+](=O)[O-])=C(NCCCC(=O)O)C1	–	inactive: -1.72%
O=C(NCCNc1ccc([N+](=O)[O-])cc1C(F)(F)F)c1ccccc1F	inconclusive [inhibitor, single point]	–
Cc1ccc(C(=O)Nc2ccc(C(=O)OCc3cc(=O)n4c5c(sc4n3)CCCC5)cc2)cc1	inconclusive [inhibitor, single point]	–
CCN(Cc1ccccc1)C(=O)c1ccc(C)c(S(=O)(=O)N2CCCCC2)c1	inconclusive [inhibitor, single point]	–
CC1CCN(S(=O)(=O)c2ccc(NC(=O)[C@@H]3CCCN3C(=O)c3cccs3)cc2)CC1	–	inactive: -4.87%
Cc1ccc(NC(=S)N(Cc2ccc(Br)cc2)Cc2ccc(C(=O)O)cc2)cc1C	–	inactive: 10.4%
CNC(=S)N/N=C/c1c(C)nn(-c2ccc(F)cc2)c1Cl	inconclusive [inhibitor, single point]	–
CCCCC(=O)NNC(=S)NC(=O)C(c1ccccc1)c1ccccc1	inconclusive [inhibitor, single point]	–
COc1ccc(CNC(=O)CSc2ccsc2[N+](=O)[O-])cc1	inconclusive [inhibitor, single point]	–
CC(=O)c1cccc(NC(=S)NC(=O)c2ccc(C)cc2)c1	inconclusive [inhibitor, single point]	–
O=C(N/N=C/c1ccc(O)cc1)c1[nH]c2ccc(Br)cc2c1-c1ccccc1	active: 3.66 µM	–
O=C(Nc1ccc(CN2CCCCC2)cc1)Nc1ccccc1Cl	inconclusive [inhibitor, partial curve]	–
CC(C)c1csc(CN2CCC(N3CCC(C(=O)NCC4CCCO4)CC3)CC2)n1 (stereo not drawn)	–	inactive: -10.7%
CCc1cccc(C)c1NC(=O)C1=C(C)C(=O)OC12CCC(C)CC2 (stereo not drawn)	–	inactive: -95.9%
COc1ccc(/C=N/NC(=O)c2ccc(CSc3nc(C)cc(C)n3)cc2)c(OC)c1OC	inconclusive [inhibitor, single point]	–
O=c1[nH]nc(CNc2ccc(OC(F)(F)F)cc2)c2ccccc12	active: 20.6 µM	–
O=C(O)CN1CCN(c2ncc(C(F)(F)F)cc2Cl)CC1	–	inactive: 2.26%
Cc1ccc2c(c1)c(=O)c(S(=O)(=O)c1ccc(C)c(C)c1)cn2CC(=O)Nc1ccccc1	–	inactive: -1.39%
Cc1ccccc1C(=O)Oc1ccc(Br)cc1C(=S)N1CCCC1	inconclusive [inhibitor, single point]	–
COc1ccc(CNC(=O)c2cccc(-c3ccc(C)c4ccccc34)n2)cc1	inconclusive [inhibitor, single point]	–
C=CCn1nc(-c2ccccc2)c2c(C)onc2c1=O	–	inactive: 8.61%
N=C(N)SCc1ccccn1	inconclusive [inhibitor, partial curve]	–
CN(C)c1ncc2nc(-c3cccs3)c(=O)n(C)c2n1	–	inactive: -1.6%

Structure (SMILES)	Potency	activity change, negative = growth inhibition
COc1cc(Cl)ccc1OCc1cc(C(=O)N2CCN(C)C(=O)[C@@H]2C)no1	inconclusive [inhibitor, single point]	–
COc1ccc(-c2cc(-c3ccccc3)nc(N)n2)c(O)c1	inconclusive [inhibitor, single point]	–
Cc1cccc2c1N(CCCOc1ccc(C(C)(C)C)cc1)C(=O)C2=O	inconclusive [inhibitor, single point]	–
O=C(CCCSc1nc2ccccc2[nH]1)NCc1ccccc1F	inconclusive [inhibitor, single point]	–
COc1ccccc1Nc1ncc(C(=O)Nc2ccc(OC)c(OC)c2)c2ccccc12	active: 18.4 µM	–
CC1CCCCC12NC(=O)N(CC(=O)N1CCN(S(=O)(=O)c3ccc4c(c3)CCC4)CC1)C2=O (stereo not drawn)	inconclusive [inhibitor, single point]	–
CCOc1ccc(N=Nc2ccc(N)cc2N)cc1	inconclusive [inhibitor, single point]	–
CCOc1ccccc1NC(=O)c1cc(C(=O)c2cc(OC)ccc2O)coc1=N	–	inactive: -20.6%
COc1cccc(N(C(=O)CNC(=O)c2ccco2)C(C(=O)NC2CCCC2)c2cccnc2)c1 (stereo not drawn)	–	inactive: 0.955%
CCc1cc(-c2n[nH]c(C)c2-c2nc3ccccc3n2C)c(O)c(CN2CCN(C)CC2)c1O	–	inactive: -17.7%
COc1ccccc1CCn1c(=O)c(-c2cccc(F)c2)nc2cncnc21	–	inactive: -2.5%
O=C1CC(C(=O)Nc2cccc3ccccc23)C2(CCCC2)O1 (stereo not drawn)	–	inactive: -2%
CCCn1c(SCC(=O)N2CCCCC2)nnc1C(C)C	inconclusive [inhibitor, single point]	–
O=C(Oc1ccnc2cc(Cl)ccc12)N1CCCCCC1	inconclusive [inhibitor, single point]	–
O=C(CN(Cc1cccs1)C(=O)CNC(=O)c1ccco1)NC1CCCCC1	–	inactive: -19.2%
CNc1ncc(C(=O)c2ccc(Br)cc2)s1	inconclusive [inhibitor, single point]	–
CCCSc1nnc(NC(=O)Nc2ccccc2)s1	inconclusive [inhibitor, single point]	–
CCOC(=O)c1c(NC(=O)C2=COCCO2)sc2c1CCN(C(=O)OC)C2	inconclusive [inhibitor, single point]	–
O=C(/C=C/c1ccccc1Cl)N1CCOCC1	–	inactive: -17.1%
Nc1nc(CSc2nc3ccccc3[nH]2)cs1	inconclusive [inhibitor, single point]	–
O=C(Nc1ccccc1N1CCOCC1)c1cc(-c2ccco2)nc2ccccc12	active: 20.6 µM	–
COc1ccccc1CNC(=O)c1cnc2sc(N3CCOCC3)nn2c1=O	inconclusive [inhibitor, full curve, poor fit]	–
COc1ccc(N2CCN(CC(O)COc3cc(C)ccc3C)CC2)cc1 (stereo not drawn)	inconclusive [inhibitor, single point]	–
C[C@@H]1CN([C@H](C)CO)C(=O)CCCn2nncc2CO[C@@H]1CN(C)C(=O)c1ccc(N2CCN(C)CC2)cc1	–	inactive: -15.8%

Reference: PubChem BioAssay AID686979 (National Center for Advancing Translational Sciences (NCATS), 2013)
